Hit rate of the full screen: of about 310,000 compounds, about 18,000 (5.8%) were called active. Inconclusive means that the source gave no clear call. Such entries were picked first, then a sample of the others. Calls follow the shape of the dose curve; as a rule, active = well fitted inhibition curve with a large enough effect; inconclusive = small, poorly fitted or top-dose-only effect, or another doubt; inactive = no such curve, though single readings can be large or run the other way. No potency is given beside an inconclusive call; the fits are too rough.
experiment: Primary qHTS for delayed death inhibitors of the malarial parasite plastid, 48 hour incubation; details: P. falciparum luciferase growth in erythrocytes; series mostly up to 28.7 µM
Outline: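 Luciferase-expressing P. falciparum in infected erythrocytes (2% hematocrit, 0.1% parasitemia final) in RPMI 1640/0.5% Albumax were exposed to compound for 48 hours at 37 C, 5% CO2; growth read as luminescence.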
Potency is read from the fitted curve at half-maximal effect; tags tell the direction and shape of the fitted curve.

Compound	Potency
CCOC(=O)C1CCCN(c2ncnc3c2cnn3-c2ccc(Cl)cc2)C1 (centres undefined)	inconclusive [inhibitor, full curve, poor fit]
COC(=O)C(Cc1cccc(C)n1)(c1ccccc1)c1ccccc1	active: 9.28 µM
Cc1cc(=O)oc2c3c(cc(OCC(=O)NCc4ccccn4)c12)OC(C)(C)CC3	inconclusive [inhibitor, full curve, poor fit]
OCCC1CN(Cc2cnc(-c3ccc(Cl)cc3)nc2)CCN1C1CCCCC1 (centres undefined)	active: 10.4 µM
COc1ccc(N(C(=O)CNS(=O)(=O)c2ccccc2)C(C(=O)NCc2ccco2)C(C)C)cc1 (centres undefined)	inactive
CSc1ccc(/C=N/NC(=O)c2cccs2)cc1	inactive
COc1ccc2c(c1)OC[C@H]1[C@H]2N2C(=O)CN(Cc3ccco3)C(=O)[C@@]2(C)[C@H]1c1ccccc1	inconclusive [inhibitor, single point]
O=CNc1ccccc1	inactive
CC(OC(=O)CN1C(=O)NC2(CCCC2)C1=O)C(=O)Nc1cccc(Cl)c1 (centres undefined)	inactive
O=C(CNC(=O)N1CC(=O)Nc2ccccc21)Nc1nccs1	inactive
CC1Cc2ccccc2N1C(=O)CSc1nnc2c(n1)[nH]c1ccccc12 (centres undefined)	inconclusive [inhibitor, full curve]
Cc1ccc(-n2cc(CN3CCN(c4ccccn4)CC3)c(-c3ccc(F)cc3)n2)cc1	active: 9.28 µM
O=c1cc(CN2CCN(c3ccccc3)CC2)nc2scc(-c3ccccc3)n12	inconclusive [inhibitor, partial curve, poor fit]
N/C(=N\OC(=O)CCCCCN1C(=O)c2ccccc2C1=O)c1ccccc1	inactive
CCN1C(=O)C(=Cc2c(C)n(CC(=O)NCC3CCCO3)c3ccccc23)C(=O)N(CC)C1=S (centres undefined)	inconclusive [inhibitor, single point]
COc1ccc(C(=O)/C=C/c2cn(CC(O)CN3CCN(C)CC3)c3ccccc23)cc1OC (centres undefined)	active: 4.65 µM
Cc1cc(C)c(C#N)c(SCC(=O)Nc2nonc2N)n1	inactive
CC(C)(C)NC(=O)NC(=O)CN1C(=O)NC(c2ccccc2)(c2ccccc2)C1=O	inconclusive [inhibitor, partial curve]
COCCN1C=C(C(=O)OC)C(c2ccccc2C(F)(F)F)C(C(=O)OC)=C1	inconclusive [inhibitor, full curve, poor fit]
Cc1ccc(Nc2ncnc3c2nnn3Cc2ccccc2)cc1	inactive
CCOC(=O)c1cccc(NC(=O)COc2nsnc2N2CCOCC2)c1	inconclusive [inhibitor, partial curve, poor fit]
Cc1cc(N2CCCC(C(=O)Nc3ccc4c(c3)CCC4)C2)n2ncnc2n1 (centres undefined)	inactive
O=C(c1cccc(Cl)c1)N1CCN(Cc2ccc3c(c2)OCO3)CC1	inconclusive [inhibitor, full curve, poor fit]
NC(=S)N/N=C1\CC(c2ccc3c(c2)OCCCO3)Oc2ccc(F)cc21 (centres undefined)	inconclusive [inhibitor, partial curve, poor fit]
Cc1ccccc1OCc1nnc(SCC(=O)Nc2ccc3nc(SCC(=O)NC(C)(C)C)sc3c2)n1C	inconclusive [inhibitor, partial curve, poor fit]

Compound	Potency
Cc1ccc(NC(=O)C(C)OC(=O)CCC2CCCCC2)cc1 (centres undefined)	inactive
Cc1cccc(NC(=O)CSc2nnc(Cn3cnc4ccccc43)o2)c1	inactive
CCOc1cc(/C=C/C(=O)c2ccc(O)cc2)ccc1OCC(=O)N(C)C	inconclusive [inhibitor, single point]
COc1ccc(NC(=O)CSc2nnc(CCC(=O)O)c(=O)n2N)cc1	inconclusive [inhibitor, single point]
CCn1c(COc2ccccc2C)nnc1SCC(=O)Nc1ccc2c(c1)OCCO2	inconclusive [inhibitor, partial curve, poor fit]
S=C1COC(c2ccccc2)N1c1ccccc1 (centres undefined)	inconclusive [inhibitor, single point]
Cc1ccc(N2C(=O)C(Cc3ccccc3)NC2=S)cc1 (centres undefined)	inactive
Cc1oc(C(C)(C)C)cc1C(=O)NC(Cc1ccccc1)C(=O)O (centres undefined)	inactive
Cc1cccc(C(=O)Nc2nnc(SCC(=O)NC3CC3)s2)c1	inactive
CCOc1ccc(C(C)(N)C(=O)O)cc1 (centres undefined)	inactive
N#CCC(=O)Nc1ccc(C(=O)NCC2(N3CCOCC3)CCCCC2)cc1	active: 11.7 µM
C=CCn1c(N)c(C(=O)OCCC)c2nc3ccccc3nc21	inactive
O=C(CN1C(=O)NC2(CCCc3ccccc32)C1=O)c1ccc(F)cc1 (centres undefined)	inconclusive [inhibitor, single point]
Cn1c(CCN2CCOCC2)nc2cc(NC(=O)COc3ccc([N+](=O)[O-])cc3)ccc21	inactive
COc1ccc(/C=C/c2ccccc2)cc1[C@H]1[C@@H]2C=CCC[C@@]2(C)C(=O)N1Cc1ccccc1	active: 10.4 µM
CCc1noc(C)c1C(=O)NNC(=O)COc1cc(C)ccc1C	inactive
O=S(=O)(c1ccc(NC(=S)N2CCN(c3ccc(O)cc3)CC2)cc1)N1CCOCC1	inconclusive [inhibitor, partial curve, poor fit]
OCC[C@H]1C[C@@H](O)[C@H](O)[C@]2(Cc3ccccc3CO2)O1	inactive
O=C(CN1CCC(n2nnc3cc(F)ccc32)CC1)N1CCc2ccccc2C1	active: 8.28 µM
COC(=O)C(Cc1ccccc1)NC(=O)C(CC(C)C)NC(=O)OC(C)(C)C (centres undefined)	inactive
Cc1ccc(-n2ncc3c(NCCCOC(C)C)ncnc32)c(C)c1	inconclusive [inhibitor, single point]
CC(C)NC(=O)COc1nncc2ccccc12	inactive
CCN(CC)CCOc1ccc2c(c1)C(=O)c1cc(OCCN(CC)CC)ccc1-2	active: 4.26 µM
Cc1ccc(CC2CC(=O)N(c3nc4ccccc4n3C)C2=O)cc1 (centres undefined)	inactive
COc1ccccc1CNS(=O)(=O)c1ccc2c(c1)NC(=O)C(C)S2 (centres undefined)	inactive

Compound	Potency
O=C(Nc1ccn(Cc2cccc3ccccc23)n1)c1cccnc1	inconclusive [inhibitor, partial curve, poor fit]
O=C(COc1cccc(C(F)(F)F)c1)Nc1ccccc1N1CCCCC1	active: 10.4 µM
CCCn1c(SCC(=O)Nc2cc(S(=O)(=O)N(C)C)ccc2OC)n[nH]c1=O	inactive
CCOc1ccc(NC(=O)c2cc3n(n2)C(C(F)(F)F)CC(c2ccco2)N3)cc1 (centres undefined)	inconclusive [inhibitor, partial curve]
COc1ccccc1Nc1nc(-c2cccc(N3C(=O)c4ccccc4C3=O)c2)cs1	inactive
O=C(CSc1nc(=O)n(CCCN2CCOCC2)c2c1CCCC2)Nc1ccc(F)c(F)c1	inconclusive [inhibitor, single point]
Cc1ccc(C(=O)N2CCC(C)CC2)cc1C	inactive
COc1ccc(CN(C)C(=O)c2ccc(NS(=O)(=O)c3ccc(C)c([N+](=O)[O-])c3)cc2)c(OC)c1OC	inconclusive [inhibitor, partial curve]
Cc1noc(NS(=O)(=O)c2ccc(N/C=C/C(=O)c3cccnc3)cc2)c1C	inactive
CSCCC(NS(=O)(=O)c1ccccc1F)C(=O)Nc1ccncc1 (centres undefined)	inconclusive [inhibitor, partial curve]
COc1ccc(C(=O)Nc2ccnn2C2CCN(C(=O)c3cccnc3)CC2)cc1	inactive
O=C(Nc1ccccc1C(=O)O)/C(=C/c1ccc([N+](=O)[O-])cc1)NC(=O)c1ccc(Br)o1	inactive
COc1ccccc1N1CCN(C(=O)c2oc3cc(C)c(C)cc3c2C)CC1	inconclusive [inhibitor, partial curve, poor fit]
COc1cccc(/C=N/Nc2cc(C)nc(-c3ccccc3O)n2)c1O	active: 3.7 µM
Cc1cccc(NC(=O)NCC(c2ccc(F)cc2)N2CCN(C)CC2)c1 (centres undefined)	inconclusive [inhibitor, single point]
Cc1cc(C)cc(C(=O)OCC(=O)NCCNC(=O)COC(=O)c2cc(C)cc(C)c2)c1	inconclusive [inhibitor, single point]
CC(=O)c1ccc(OCC(=O)Nc2ccc(N3CCCCC3)cc2)cc1	inconclusive [inhibitor, single point]
COc1ccc(N(CC(=O)NC2CCCC2)C(=O)Cn2nnc(-c3ccc(F)cc3)n2)cc1OC	inconclusive [inhibitor, partial curve]
COc1ccc(OC)c(CN2CCN(C(=O)c3cccc(S(=O)(=O)Nc4ccccc4OC)c3)CC2)c1	inconclusive [inhibitor, full curve]
COc1ccc(-c2noc(N3CCC(C(=O)NC(C)c4ccccc4)CC3)n2)cc1 (centres undefined)	inconclusive [inhibitor, single point]
CCOc1ccc(N(CC(=O)NC2CCCCC2)C(=O)CCC(=O)Nc2nc(C)cs2)cc1	inconclusive [inhibitor, single point]
Cc1ccc(-c2nc(N3CCOCC3)sc2C(=O)N2CCCCC2)cc1	inactive
CCOC(=O)c1c(NC(=O)CSc2nccn2C)sc(C(=O)NC)c1C	inconclusive [inhibitor, single point]
CCN(c1cccc(C)c1)S(=O)(=O)c1ccc2c3c(cccc13)C(=O)N2	inconclusive [inhibitor, single point]

— PubChem BioAssay AID504832 (National Center for Advancing Translational Sciences (NCATS), 2011)
